The values below come from the RNAGym collection of RNA variant scans (doi:10.7554/elife.90254).

First the molecules themselves.
B1: LINE1-mini (parent)
chain: GGCAGAGCUCAACACAGCGUGGCAAAGUGGCUGUGGCUAGACUGCC

Read counts are not given, so values of variants with three or more changes are uncertain.

The variants in this series derive from B1. Description: self-cleavage, relative activity (ratio to wild type); higher = more cleavage; in vitro, sequencing; the parent is a self-cleaving ribozyme.
For GGCAGAGCUCAACACAGCGUGGCAAAGUGACUGUUCCUAGACUGCC [G30A G35U G36C], the self-cleavage worked out at 0.06.
The figure for GGUAGAGAUCAACACAUCGUGGCCAAGUGGCUGUGGCUAGACUUCC [C3U C8A G17U A24C G44U] is 0.05; for GGCAGUUCUCAACACAGCGUGGCAAGGUGGCUGUGGCUAGACUGCC [A6U G7U A26G] it is 0.03.
Turning to GGCAGAACUCACCACAGCGUGGAAAAGUGGCUGUGGCUAGACUGCC [G7A A12C C23A], the self-cleavage worked out at 0.04.
On to GGCAGAGCUUAACAUACCGUGGCAAGGUGGCUGUGGCUAAACUGCC [C10U C15U G17C A26G G40A], for which the self-cleavage amounted to 0.01.
The figure for GGCAGAGCUAAUCACAGCGUGGCAAAGUGGCGGUGGCUAGACUGCC [C10A A12U U32G] is 0; for GGCACAGCUCUACACAGCGUUGCAAAGUGGAUGUGGCUACACCGCC [G5C A11U G21U C31A G40C U43C] it is 0; for GCCAGAGCUCAACACAGCGUGGCAAAGUGGCAUUGCCGAUACUGCC [G2C U32A G33U G36C U38G G40U] it is 0.11.
GGAAGAGCUCAACACAGCGUGGCAAAGUGGCUGUGGCUCGACUACC [C3A A39C G44A]: the self-cleavage amounted to 0.13.
As to GGGAGAUCUCAACACAGCGUGGCAAAGUUGCUGUGGCUAGACUGCC [C3G G7U G29U], the self-cleavage was 0.48.
As to GGCAGAGCUCAAAACAGCGUGGCAAUGUGGCUGUGGCUAGUCUACC [C13A A26U A41U G44A], the self-cleavage stood at 0.09.
The figure for GUCAGAGCACAACACAGCGUGGCAAAGUGGCUGUGGCUAUACUGCC [G2U U9A G40U] is 0.09; for GGUAGAGCUCAACACAGCGUGGCACAGUGGCUGUGGCUAAACUUCC [C3U A25C G40A G44U] it is 0.03.
With GGCGGAGCUCAACACAGCGUGGCAAAGUGGCUGUAGCCAGACUGCC [A4G G35A U38C], the self-cleavage amounted to 0.77.
The figure for GGCAGAGCUGAACACAGCGUGGUCAAGUGGCUGUGGCUAGACUGCC [C10G C23U A24C] is 0.06; for GGCAGAGGUCAACACUGCGUGGCAAAGUGGCUGUGUCUAGACUGCC [C8G A16U G36U] it is 0.02; for GGCAGAGCUCAAUAGAGCGUGGCAAAGUGGCUGUGGCUAGACUGUC [C13U C15G C45U] it is 0.05.
For GGCAGAGCUCAUCAAUGCGCGGCAAAGUCGCUGUGGCUAGACUGCA [A12U C15A A16U U20C G29C C46A], the self-cleavage was determined as 0.01.
The figure for GGCAGAGCUAAACACAGCGUGGCAAAGUGGCUGUGGCUAGCCUACC [C10A A41C G44A] is 0.05.
For CGCAUAGCUCAACACAGGGUGGCAAAGCGGCUGUGGCUAGACUGCC [G1C G5U C18G U28C], the self-cleavage was determined as 0.02.
With UGCAGAGUACAAAACAGCGUGGCAAAGUGGCUGUGGCUAGACUGCC [G1U C8U U9A C13A], the self-cleavage came out at 0.13.
GGCAGAGCUCAACACAGCGUGGCAAUGUGGCUGUUUCUAGACUGCC [A26U G35U G36U]: the self-cleavage was determined as 0.2.
As for GGCAGAGCUCAACACAGCGUGGCAAAGUGGCUUUUGCUAGACAGCC [G33U G35U U43A], the self-cleavage was 0.09.
Take GGCCGGGACCAACACUGCGUGACAACGUGGCUGUGACUAGACUGCC [A4C A6G C8A U9C A16U G22A A26C G36A]: the self-cleavage turned out to be 0.53.
The figure for GGCAGAGCUCAACCCAGCUUGGCAAAGUGGCUGUGGCUAGACAGCC [A14C G19U U43A] is 0.03; for GGCAGAGUUAAAGACACCGUGGCAAAGUGGCUGAGGCUAGACUGCC [C8U C10A C13G G17C U34A] it is 0.01; for GGCUGAGCUCAACACAGCGUGGCAAAGUGGAUGUGGCUGGACAACC [A4U C31A A39G U43A G44A] it is 0.01.
With GGCAGAGGUCAAAACAGCGUGCCAAAGUGGCUGUGGCUAGACUUCC [C8G C13A G22C G44U], the self-cleavage worked out at 0.08.
For GGCAGAGUUCAACACAGCGUGGCAAAGGGGCAGUGGCUAGACUGCC [C8U U28G U32A], the self-cleavage was 0.03.
For the variant GGCAGAGAUCAACACAGCGUGGCAAGGUGGAUGUGGAUAGACUGCC [C8A A26G C31A C37A], the self-cleavage turned out to be 0.04.
In the case of GGCAGAGCUCAACACAACGUGCCAAAGUGGCUGUGGCUAGGCUGCC [G17A G22C A41G], the self-cleavage is 0.02.
For the variant GGCAGAGCUCAUCACAACGUGCCAAGGUGGCUGUGGCUAGACUGCC [A12U G17A G22C A26G], the self-cleavage was determined as 0.07.
The figure for GACAGAGCUCAACACAGCGUGGCAUAGUGGCUGUGCCUAGACUGCC [G2A A25U G36C] is 0.59.
The figure for GGUAGAGCUCAACACUGGGUGGCAAAGUGUCUAUGUCUAGACUGCC [C3U A16U C18G G30U G33A G36U] is 0.04; for GGCUGAGCUCAACACCGCGUGGCAAAGUGGCUGUGGCUAGUCUGCC [A4U A16C A41U] it is 0.07.
Regarding GGCAGAGGUCAACACAGCGUGGCAAAGUGGCUGUCGAUAGACUGCC [C8G G35C C37A], the self-cleavage turned out to be 0.03.
On to GGGAGAGCUAAACUCAGCGUGGCAAAUUGGCUGUGGCUAGACUGCC [C3G C10A A14U G27U], for which the self-cleavage is 0.04.
For CGCAGAACUCAACCCAGCGUGGCAAAGUGGCUGUGGCUACACUGCC [G1C G7A A14C G40C], the self-cleavage was 0.01.
GGCAGAGCUCAAGACAGCGUGGCAAAGUGGCUGAGGCUAGCCUGCC [C13G U34A A41C]: the self-cleavage is 0.01.
On to UGCAGAGCUCAACACAGCGUGGCCAAGUGGCUGUGGCUAGGCUACC [G1U A24C A41G G44A], for which the self-cleavage was 0.03.
GGCAGAGCUCAACAAAGCGUGGUCAAGCGGCUGUGGCUGGACUGCC [C15A C23U A24C U28C A39G]: the self-cleavage came out at 0.03.
Take GGCAGAGCUAAACACAAAGUGGCAAAGUGGCUGUGGCUAGACUGCC [C10A G17A C18A]: the self-cleavage amounted to 0.03.
For GGCAGAGAUCACCACAGCGUGGCGAAGUGGCUGUGGCUAGACUGCA [C8A A12C A24G C46A] the value was 0.06.
Take GGCAGAGCUCAUCACAGCGUGGCAAAUUGGCUGUGGCCAGACUGCC [A12U G27U U38C]: the self-cleavage turned out to be 0.05.
Regarding GGCAGAGCUCAACACAGCUGGGCAAAGUGGCUGUGGCUAGACUGGC [G19U U20G C45G], the self-cleavage was 0.22.
As to GGCAGAGCUCAACACAGCGCGGAAAAGUGGCUGUGGCUAGUCUGCC [U20C C23A A41U], the self-cleavage was 0.25.
On to GGCAGAGCUCAACACAGCGUGUCAACGUGGCUGUGGCUAGACUGCG [G22U A26C C46G], for which the self-cleavage turned out to be 1.81.
GGCAGAGCUCAACACAGCGUGUCAAUGUGGCUGUGGCUAGACUGGC [G22U A26U C45G]: the self-cleavage is 0.77.
Regarding GGCAGAGCUCAACACAGCAUGGCAAAGUGGAUGUAGCUAGACGGUC [G19A C31A G35A U43G C45U], the self-cleavage was 0.02.
For the variant GGCAGAGCUCAACACAGCGUGGCAAAGUGCCUGUGGCUGGACUGUC [G30C A39G C45U], the self-cleavage stood at 0.03.
Take GACAGAGCUCAACACUGCGUGGCAAAGUGGCUGUGGCUAGACUACC [G2A A16U G44A]: the self-cleavage was found to be 0.07.
As for GGCAGAGCUCAACACAGCGUGGCAACGUGGCUGUGUCUAGACUCCC [A26C G36U G44C], the self-cleavage stood at 0.09.
For GGCAGAGCUCAACACAGCGGGGCCAAGUGGCUGUGGCUAGACAACC [U20G A24C U43A G44A], the self-cleavage is 0.
For GGCCCAGCUCAACACAGCGUGGCAAAGUGGCUGUGGCUAGAUGGCC [A4C G5C C42U U43G], the self-cleavage was 0.06.
The figure for GGCAGAGUUCAACACAGCGUGGCAAGGUGUCUGUGGCUAGACUGCC [C8U A26G G30U] is 0.16; for GGCAGAGCUCUACACAGCGUGGCAAAGUGACUGUGAGUAGACUUCC [A11U G30A G36A C37G G44U] it is 0.01.
